Measured values published in PubChem BioAssay (NCATS).
Some of the results follow. These are further read-outs of the screen, such as a control signal, another cell line or another target. No call is given for them. For some assays here: Most of these compounds were active or inconclusive in the main read-out, so they are no random draw. Words in brackets tell the shape of the fitted curve; partial curves, single points and poor fits give uncertain potencies.

Assays:
[1] = qHTS drug screen for cell cycle checkpoint inhibitors in PARPi-resistant BRCA-mutant ovarian cancer cell lines. (AID 1963452); settings: PEO1/OlaR viability, CellTiter-Glo luminescence, 96 h
In short: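 PEO1, PEO4 and PEO1/OlaR ovarian cancer cells, 600 per well, exposed 96 h at 37C to a dilution series. Viability read by CellTiter-Glo luminescence, normalized to DMSO and empty wells; activity summarized as Z-AUC.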

[2] = qHTS for identification of novel therapeutic agents for treatment of microphthalmiaassociated transcription factor (MiT) renal cell carcinoma (RCC) (AID 1963991); settings: CellTiter-Glo, 48 h; for z-score: stronger effect = lower value;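 for z-score: curves scaled with 100% = DMSO viability and 0% = empty wells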
In short: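 UOK109/UOK124/UOK145 (TFE3 fusions, three partners); 500 cells/well; MIPE v4.0, 1912 cpds, 11 conc.; 48 h, 37 C; CellTiter-Glo, 15 min RT; lum. Norm.: DMSO 100%, empty 0%.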

[3] = measured here: PEO1 parental viability
[4] = TFE3-RCC UOK109 viability, measured here: UOK109 Z-AUC
[5] = TFE3-RCC viability, measured here: UOK124 Z-AUC
[6] = TFE3-RCC viability, measured here: UOK124 cell viability
[7] = TFE3-RCC viability, measured here: UOK145 Z-AUC
[8] = TFE3-RCC viability, measured here: UOK145 cell viability
Tags give direction and shape of the fitted curve.

SMILES | AC50 [1, 3] | AC50 ([1]; measured here: PEO4 viability) | z-score [2, 4] | z-score [2, 5] | AC50 [2, 6] | z-score [2, 7] | AC50 [2, 8]
NS(=O)(=O)c1cccc2c1C(=O)c1cccc(O)c1C2=O | 2.75 µM [falling, full curve] | 0.977 µM [falling, full curve] | -0.738 | -2.15 | 0.743 µM [falling, full curve] | -1.32 | 1.32 µM [falling, full curve]
COC(=O)Nc1ccc(-c2nc(N3CCOCC3)c3cnn(C4CCN(C(=O)OC)CC4)c3n2)cc1 | 0.871 µM [falling, full curve] | 0.616 µM [falling, full curve] | -1.83 | -0.0771 | 4.18 µM [falling, full curve] | -2.49 | 1.87 µM [falling, full curve]
N#CCNC(=O)c1ccc(-c2ccnc(Nc3ccc(N4CCOCC4)cc3)n2)cc1 | 13.8 µM [falling, partial curve] | 24.5 µM [falling, single point] | -0.229 | 0.121 | 16.6 µM [falling, partial curve] | -0.57 | 16.6 µM [falling, partial curve]
CCc1ccc(C(=O)Nc2cc(CN3CCN(C)CC3)cc(C(F)(F)F)c2)cc1C#Cc1cnc2ccnn2c1 | 0.871 µM [falling, full curve] | 1.95 µM [falling, partial curve] | 0.44 | -0.287 | 10.5 µM [falling, full curve] | 0.116 | 16.6 µM [falling, partial curve]
CCNC(=O)c1cc2c(-c3cc(OCCN4CCCC4)c(Cl)cc3Cl)nc(N)nc2s1 | 0.952 µM [falling, full curve] | 3.38 µM [falling, partial curve, poor fit] | 0.071 | -0.0238 | 0.105 µM [falling, full curve, poor fit] | -0.231 | 2.35 µM [falling, full curve]
Oc1ccc([C@@H]2Oc3ccc(O)cc3[C@@H]3CCC[C@@H]32)cc1 | 5.49 µM [falling, full curve] | 4.9 µM [falling, full curve] | 1.16 | -0.101 | 16.6 µM [falling, partial curve] | -0.106 | 23.5 µM [falling, single point]
O=c1[nH]nc(Sc2ncc([N+](=O)[O-])s2)n1-c1ccc2c(c1)OCCO2 | 13.8 µM [falling, partial curve] | 3.89 µM [falling, full curve] | -0.443 | -0.609 | 9.35 µM [falling, full curve] | -0.655 | 10.5 µM [falling, full curve]
COc1ccc(S(=O)(=O)Nc2cc(-c3c(O)ccc4ccccc34)c(O)c3ccccc23)cc1 | 1.95 µM [falling, full curve, poor fit] | 3.47 µM [falling, full curve] | 0.234 | -1.89 | 20.9 µM [falling, partial curve] | 0.313 | 26.4 µM [falling, single point]
O=C(NC1CC1)c1cccc(-c2ccc3c(NC(=O)C4CC4)n[nH]c3c2)c1 | 1.74 µM [falling, full curve] | 2.19 µM [falling, full curve] | 0.405 | -0.565 | 10.5 µM [falling, full curve] | -0.372 | 16.6 µM [falling, partial curve]
COc1cc(Nc2ncc3c(n2)-c2ccc(Cl)cc2C(c2c(F)cccc2OC)=NC3)ccc1C(=O)O | 7.76 µM [falling, partial curve] | 0.0174 µM [falling, full curve, poor fit] | -0.08 | -0.391 | 4.18 µM [falling, partial curve, poor fit] | -0.209 | 26.4 µM [falling, partial curve, poor fit]
CN(C)c1ccc(C(=O)NCCCCCCC(=O)NO)cc1 | 3.47 µM [falling, full curve] | 4.36 µM [falling, partial curve] | -0.955 | -1.97 | 2.64 µM [falling, full curve] | -0.354 | 7.43 µM [falling, partial curve]
